The subject of this data set is ATP. Put plainly: switch fluorescence ratio, 500 uM ATP over buffer (Cy3 cluster intensity, sum of 5 cycles each) (fold (ratio)); higher = stronger signal-on switching upon ATP binding; sequences stand for … in TCGTCGGCAGCGTCAGATGTGTATAAGAGACAGTTTTTTTTTTTTTTTTTTTTTTTTT…TC. The settings on record: aptamer strand: ATP DNA aptamer (quencher-CACCTGGGGGAGTATTGCGGAGGAAGG + anchor), 100 nM annealed; ATP concentration: 500 uM; one replicate. A digest of the protocol: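 After annealing to 100 nM quencher-labelled ATP aptamer, Cy3-labelled switching-strand clusters on a modified Illumina MiSeq flow-cell were imaged in selection buffer. A second image followed after 15 min with 500 uM ATP at 22 °C, and five such buffer/ATP cycles were done, each separated by NaOH stripping and re-annealing. The fluorescence ratio, averaged per switch-domain sequence, is summed target-cycle over summed buffer-cycle Cy3 intensity per cluster, with clusters outside 100-1000 RFU excluded.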

Switch fluorescence ratio data for 67 sequences are collected here from the supplement of paper PMC10126150.

Sequences with one replicate were seen in a single cluster, so their values are uncertain.
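Also: ATP exposure 15 min at 22 °C before imaging.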

As to ATTAGCCGTG, the switch fluorescence ratio is 0.978. With GGAAGAAAT the figure was 1.01; with GCCTGTGGTC, 0.967; with ATAATAGGGG, 0.948. With CGCCGCGCTT the figure was 1.33; with GTTTGACATC, 1.04. With GAGGGGAGTT the figure was 0.998; with GTTGGGGCCC, 1.01; with TGTTGGCCTG, 1.02.

For ATGCTCTGAT, the switch fluorescence ratio was determined as 0.975. With ACACCGTAGA the figure was 1.04. On to CGAACATGGG, for which the switch fluorescence ratio stood at 1.01. Take AATGCAGACG: the switch fluorescence ratio came out at 1.1.

Consider TAATCCCGCG, for which the switch fluorescence ratio is 1.04. With GGCGTAAGTT the figure was 0.978; with TTTCACCGGA, 1.05; with TTCGGGTCTC, 0.974. For GACAATAGCA, the switch fluorescence ratio came to 1.09. Regarding TTAGCTTCTG, the switch fluorescence ratio came to 0.944. ATACGTCCTG: the switch fluorescence ratio amounted to 1.05.

Regarding CCTAAAGGTA, the switch fluorescence ratio was found to be 1.02. With CGACACGTAG the figure was 1.03. In the case of TACATGGTTA, the switch fluorescence ratio turned out to be 0.975. Next, TGCCTGAAAG: 1.02; TGAACAGATG: 0.985; GCTTGAAATG: 0.997.

Take GTTTCTCAG: the switch fluorescence ratio came out at 0.987. Next, GTGGCTTAA: 1; GGATTTTATT: 1.05. Next, GAATAATCTT: 1; TTGAGTCGGG: 0.939. Consider TTCACCCAGT, for which the switch fluorescence ratio is 1.22.

For the sequence ACCATAAAGG, the switch fluorescence ratio turned out to be 1.01. Next, CATTCTGGAA: 1.04. ACGGCTGTTT: the switch fluorescence ratio was 1.01.

Regarding AAGATCATAT, the switch fluorescence ratio stood at 1.08.

Take ATCGTAAAGG: the switch fluorescence ratio was 0.958.

In the case of GGCTATTTGC, the switch fluorescence ratio was 1.01. Next, ACGTCGCTTG: 1.04; GGAAGTTCCA: 0.985. With CAAATGGGGT the figure was 1.03; with AAATTCCGGT, 1.03. With CGGTCTACGG the figure was 0.97. For CAGCACTTGA, the switch fluorescence ratio was 1.07. With CCTTCTAAGG the figure was 1.57.

As for TAGAGCTTTG, the switch fluorescence ratio is 1.01.

With AATCCCAAAG, the switch fluorescence ratio turned out to be 1.04.

Regarding AAAAGTCCAG, the switch fluorescence ratio came to 1.01.

With ATCTACTCGC, the switch fluorescence ratio was 1.11.

As for CCAGGTTAGA, the switch fluorescence ratio was 1.09.

As for GACGGAAGCC, the switch fluorescence ratio came out at 1.83. With CCAGGCTACG the figure was 1.05; with CTGGTTCCCC, 1.01; with CGTGGGCGGA, 0.998. Next, ACCTACGGGG: 1.21; GCACGTACAA: 1.7; TTCTCTTAAT: 1.04. With GGCAGGCGCG, the switch fluorescence ratio is 0.996.

As to GCCACGCCGC, the switch fluorescence ratio came to 1.14.

For the sequence AGGAAAGGTC, the switch fluorescence ratio came out at 0.97.

Take TACGCCGTTT: the switch fluorescence ratio is 0.985.

For GATCGTAATC, the switch fluorescence ratio amounted to 2.01. With GTCTGGGTTT the figure was 0.991. With AAGGGTACAG, the switch fluorescence ratio was 1.06. With CACCACTTCC the figure was 2.26. Next, CTGTGATCCT: 1.06. With ATATGTTGGC the figure was 0.981.
